Results taken from PubChem BioAssay (Tox21).
Several values for one entry are separate records, joined by “and”; a condition that tells them apart may be missing. Equal entries are not always repeated. This list was built around the results that the source calls inconclusive (neither active nor inactive); the mix of calls is not that of the screen. Where the call is inconclusive, the potency comes from a doubtful curve fit. Activity calls are given as the source filed them. The call rests on the fitted dose curve; in most records, active means well fitted curve in the direction sought with a large enough effect in the repeat runs; inconclusive means weak or mixed curves; inactive means no such curve, though single readings can be large; an effect the other way counts as inactive or inconclusive.

Experiments:
[1] = Caspase-3/7 induction in HepG2 cells by small molecules, qHTS assay (AID 1346978); further: nearly all actives have a fitted effect of over 15% in size
How it was run: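 Wild-type HepG2 cells (2,000/well) were settled 5 h at 37 C, 5% CO2, then exposed to compounds in DMSO for 17 h. Caspase-3/7 activity was read by luminescence 30 min after adding Caspase-Glo 3/7 reagent at room temperature.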

[2] = Caspase-3/7 induction in HepG2 cells by small molecules, qHTS cell viability counter screen (AID 1346981); further: nearly all actives have a fitted effect of over 30% in size
How it was run: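 Fluorescence read-out of live-cell protease activity (CellTiter-Fluor) after 1 hr with reagent. This was measured in the same wells as the caspase-3/7 luminescence, on HepG2 cells exposed to DMSO-dissolved compounds for 16 hr at 37 C.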

[3] = target: Cytochrome P450 2C19 (Homo sapiens) (UniProt P33261); assay: Cytochrome P450 Family 2 Subfamily C Member 19 (CYP2C19) small molecule antagonists: luciferase reporter qHTS assay (AID 1671197); further: nearly all actives have a fitted effect of over 65% in size
Chain of UniProt P33261 (P33261 whole entry, looked up): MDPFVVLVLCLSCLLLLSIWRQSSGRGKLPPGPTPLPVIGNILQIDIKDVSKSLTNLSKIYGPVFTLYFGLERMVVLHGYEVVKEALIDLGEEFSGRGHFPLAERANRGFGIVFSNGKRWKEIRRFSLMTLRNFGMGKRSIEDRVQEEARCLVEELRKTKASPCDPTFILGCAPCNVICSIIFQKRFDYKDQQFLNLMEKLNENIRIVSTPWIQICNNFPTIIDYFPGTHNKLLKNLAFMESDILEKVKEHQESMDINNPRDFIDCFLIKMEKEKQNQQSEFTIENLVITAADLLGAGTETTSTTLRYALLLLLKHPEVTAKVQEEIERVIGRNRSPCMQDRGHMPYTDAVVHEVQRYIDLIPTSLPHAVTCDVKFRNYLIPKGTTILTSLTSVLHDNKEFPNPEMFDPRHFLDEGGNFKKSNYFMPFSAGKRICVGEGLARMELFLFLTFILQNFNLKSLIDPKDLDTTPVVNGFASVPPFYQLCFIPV
How it was run: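 CYP2C19 P450-Glo, 1536-well qHTS. Cpd + enzyme/proluciferin substrate 10 min RT; + NADPH regen, 37C 1 h; stop with luciferin detection reagent, 20 min RT, luminescence (RLU). Pos ctrl ketoconazole.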

[4] = Caspase-3/7 induction in CHO-K1 cells by small molecules, qHTS assay (AID 1346980); further: nearly all actives have a fitted effect of over 15% in size
How it was run: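 Wild-type cells were seeded at 1,500 per well and settled 5 hr at 37 C, 5% CO2, then exposed to DMSO-dissolved compounds for 17 hr. Caspase-Glo 3/7 reagent was added, and luminescence was read after 30min at room temperature.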

[5] = target: Nuclear receptor subfamily 1 group I member 2 (Homo sapiens) (UniProt O75469); assay: Human pregnane X receptor (PXR) activation by small molecules, qHTS assay (AID 1346985); further: nearly all actives have a fitted effect of over 40% in size
How it was run: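 DPX-2 cells (HepG2 co-transfected with a PXR response element and a CYP3A4-promoter luciferase construct) were seeded at 2,000 per well, rested 5 hr at 37C, then exposed to DMSO-dissolved compounds for 24 hr. Activation was read as luciferase luminescence.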

[6] = target: Cytochrome P450 2D6 (Homo sapiens) (UniProt P10635); assay: Cytochrome P450 Family 2 Subfamily D Member 6 (CYP2D6) small molecule antagonists: luciferase reporter qHTS assay (AID 1671196); further: nearly all actives have a fitted effect of over 50% in size
Chain of UniProt P10635 (P10635 whole entry, looked up): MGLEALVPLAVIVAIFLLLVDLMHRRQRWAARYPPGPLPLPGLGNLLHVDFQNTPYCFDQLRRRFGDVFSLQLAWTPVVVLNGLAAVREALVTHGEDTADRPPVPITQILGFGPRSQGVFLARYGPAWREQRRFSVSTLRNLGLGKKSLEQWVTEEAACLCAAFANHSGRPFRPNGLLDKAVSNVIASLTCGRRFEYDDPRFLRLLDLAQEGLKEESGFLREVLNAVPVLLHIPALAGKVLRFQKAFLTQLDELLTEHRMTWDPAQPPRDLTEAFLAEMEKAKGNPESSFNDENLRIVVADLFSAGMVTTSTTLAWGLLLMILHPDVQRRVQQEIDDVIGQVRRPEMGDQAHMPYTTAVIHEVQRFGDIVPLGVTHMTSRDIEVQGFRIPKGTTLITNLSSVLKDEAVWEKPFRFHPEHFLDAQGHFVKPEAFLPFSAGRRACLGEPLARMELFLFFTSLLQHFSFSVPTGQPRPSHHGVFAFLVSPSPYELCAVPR
How it was run: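 Luminogenic proluciferin substrate, CYP2D6 enzyme; 10 min RT preincubation with compound, NADPH regeneration system added, 1 h RT. Stop/detection reagent, 20 min RT, luminescence read (RLU). Signal proportional to CYP activity.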
Potency means the concentration at half of the fitted maximal effect; tags describe the fitted curve by direction and shape.

SMILES | Potency [1] | Potency [2] | Potency [3] | Potency [4] | Potency [5] | Potency [6]
C=CC(=O)OCCOCCOCCOCCOC(=O)C=C | active: 68 µM | active: 30.8 µM and active: 27.1 µM | inconclusive: 89.9 µM [inhibitor, single point] |  |  | 
C[n+]1cc2c3c(ccc2c2ccc4cc5c(cc4c21)OCO5)OCO3 | active: 3.66 µM |  | active: 1.07 µM |  |  | 
CCOC(=O)C1=C(C)NC(C)=C(C(=O)OCC)C1c1ccccc1/C=C/C(=O)OC(C)(C)C | inconclusive: 33.5 µM [activator, single point] | inconclusive: 29.8 µM [cytotoxic, single point] |  | inconclusive: 33.5 µM [activator, single point] | inconclusive: 0.501 µM [activator, full curve, poor fit] | inconclusive: 0.436 µM [inhibitor, full curve, poor fit]
CN1CCC[C@@H]1CCO[C@](C)(c1ccccc1)c1ccc(Cl)cc1 | inconclusive: 33.5 µM [activator, single point] | inconclusive: 26.6 µM [cytotoxic, partial curve] |  |  |  | 
CCOc1nc2cccc(C(=O)OC(C)OC(=O)OC3CCCCC3)c2n1Cc1ccc(-c2ccccc2-c2nn[nH]n2)cc1 (configuration not stated) | inconclusive: 54.4 µM [activator, single point] | inconclusive: 61.1 µM [cytotoxic] | inconclusive: 71 µM [inhibitor, single point] | active: 43.2 µM |  | inconclusive: 56.4 µM [inhibitor, partial curve]
